# Some of the results follow.
# T1: UNK ZnF1-6 (called full-length) (human, UniProt Q9C0B0 30-357)
# T1 sequence: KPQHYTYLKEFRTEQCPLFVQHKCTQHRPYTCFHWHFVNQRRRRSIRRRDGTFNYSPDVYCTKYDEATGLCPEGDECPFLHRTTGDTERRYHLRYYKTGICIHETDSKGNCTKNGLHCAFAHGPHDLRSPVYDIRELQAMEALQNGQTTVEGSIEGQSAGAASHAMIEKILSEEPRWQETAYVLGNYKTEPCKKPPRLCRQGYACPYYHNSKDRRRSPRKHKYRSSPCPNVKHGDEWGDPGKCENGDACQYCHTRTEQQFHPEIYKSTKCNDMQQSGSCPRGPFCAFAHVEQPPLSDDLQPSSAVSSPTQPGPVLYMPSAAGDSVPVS
# B1: chr12:114680981:114681101:-|CDS|ENSG00000135111|unk|FALSE|unique (ssRNA)
# RNA: GGGAGUUCUACAGUCCGACGAUCUAAAGUGAGAUGUUCUGGGCUGGAUAAAAAAGCCAAAUACAUUUUAUUGAUGGACAUUAUAGCUGCUGAUGACUGUCGUUAUAAAUUUCACAAUUCUCGGUGGAUGGUGGCUGGUAAGGCCAACAGAGGAUUGAGCAUCA
# B2: chr10:116672031:116672132:-|3pUTR|ENSG00000165868|msi1|FALSE|unique (ssRNA)
# RNA: GGGAGUUCUACAGUCCGACGAUCCCUUUCCUGCCUUGCAUUAAUGCUAUCUCCCUGUGUACUGUUUCUCUUAAAUGAGCAGAUAGAAAUCUGCAGUGUUGGCAGAUAGGUGAUGGAGAGGAUGAUAAUUUUAUCUUCUGGCCACAACAGAGGAUUGAGCAUCA
# B3: chr10:122937732:122937852:-|CDS|ENSG00000119965|unk|total|mutant (ssRNA)
# RNA: GGGAGUUCUACAGUCCGACGAUCGUAAGUGACAACUCAAAUAUACCCAACUCCGAGUUGCUGCCUUUUCUCCAGAAUUUAUGCCGUCAAGUUAAUCAUCUCCAUGUGGGAAAUAAGACCGAGUGUCAGGAAAACAUCACCAAGCAACAGAGGAUUGAGCAUCA
# B4: chr2:200490383:200490484:-|CDS|ENSG00000155729|msi1|total|mutant (ssRNA)
# RNA: GGGAGUUCUACAGUCCGACGAUCUCUCCAGCCAGUGCCAUCCAGACGUCGGCUGGGGCGACAGCAAACCGGUUUCAAAGUGGCCGCCGCAGAAAGGCAGCUCAGCGCUCUGCACCUUCCAGAGCCACGGCCCUGGUGGGCACGCAACAGAGGAUUGAGCAUCA
# B5: chr7:108149816:108149915:-|CDS_3pUTR|ENSG00000091129|msi1_unk|total|mutant (ssRNA)
# RNA: GGGAGUUCUACAGUCCGACGAUCGUCAACGCCAUGAAUUCCUUUGUUUAAUUUUUAAGCUCUUUGCCAAUAUUCCAUUUCUCCCGAAUGUUUAUCCUAAGCACUUGUUUGUCAGCCCUCUCAUACUAUGAACAUAUGGGCCGACAACAGAGGAUUGAGCAUCA
# B6: chrX:13662881:13662996:+|CDS|ENSG00000176896|unk|total|mutant (ssRNA)
# RNA: GGGAGUUCUACAGUCCGACGAUCUCGAAUUCUCUGUCUUCCCAAGACGUUGCAAAACUCAGUGAAAUGAUUGUGCCUGAAAACCGAGCCAUUCAAUUGAAACCUAAGGAAGAGCAUUUUGGGGAUGGUGACCCUGAAUCCACUCAACAGAGGAUUGAGCAUCA
# B7: chrX:24560996:24561098:-|3pUTR|ENSG00000102230|unk|total|mutant (ssRNA)
# RNA: GGGAGUUCUACAGUCCGACGAUCACUCAAGACUUUUUACAGAGAACUGUGGGCUCAGUUAUGAUCUCAGCAUCUGAAUGGUCCCGGCCGUAUCACCAUUAUCUCUGGCCCCCGGUUUGCCAAGCCGGAUGAAGACUCUAAGUGCAACAGAGGAUUGAGCAUCA
# B8: ENSG00000196628:stop:overlap|stop_codon|ENSG00000196628|stop_codon|NA|stop_codon (ssRNA)
# RNA: GGGAGUUCUACAGUCCGACGAUCCAACCUCCACCUCCCAGGUUCAAGCUAUCCUCCUGCCUCAGCCUCCUGAGUACCCGGGAUAGGCGUUUGUGUGAUUUUGCUAAAAUGCAUCACCAACAGCGAAUGGCUGCCUUAGGGACGCAACAGAGGAUUGAGCAUCA
# B9: chr6:36232219:36232320:+|3pUTR|ENSG00000096070|unk|total|mutant (ssRNA)
# RNA: GGGAGUUCUACAGUCCGACGAUCGCCCGGGAAGGACAUGGUGUAUAUAAUUGUAAAAUACUGUUCUAAAUUAUUCAGGCCUACCGUUUCCAUUACUGGAGUCCUCCAUUGUGUGGCCACACAGUGUCGUUGAUUUAAAGGAGCCAACAGAGGAUUGAGCAUCA
# B10: ENSG00000070961:be:win_2601|CDS|ENSG00000070961|bound_else_gene|NA|bound_elsewhere_windowed (ssRNA)
# RNA: GGGAGUUCUACAGUCCGACGAUCGAUUGUUGCUUUUACGGGCGCCUGCAUUACUCAAGACUCACCGCUUAAGGCUGUGCAGAUGCUGUGGGUAAACCUCAUAAUGGAUACACUCGCUUCCCUGGCUCUGGCAACGGAACCACCCAACAGAGGAUUGAGCAUCA
# B11: chr12:111449306:111449407:+|3pUTR|ENSG00000111252|msi1|total|mutant (ssRNA)
# RNA: GGGAGUUCUACAGUCCGACGAUCGCUGGCUUGGUGCCCUCCAAGCAUCUAAUGGCUUAUUAAAUUAUCCCACAAGUGGGUUUCCGGCUCCUUUUUUGAGCCAAAAUGGAAGCUGGGAAUCUGGUGCCAUAACUAAUGAGAAACCAACAGAGGAUUGAGCAUCA
# B12: ENSG00000136451:be:win_4001|3pUTR|ENSG00000136451|bound_else_gene|NA|bound_elsewhere_windowed (ssRNA)
# RNA: GGGAGUUCUACAGUCCGACGAUCGUCAUGUCUUCUUUUGGGAGGGAGAGAGUCGAUGGCAGGAGGGGGUUUUGGGUGGGCCACUGAAAAGGGGUACCGAAUAGGUUGUGUGAUGAAAUUCUGUGUCUUGGAACUGGAAUUGAGCAACAGAGGAUUGAGCAUCA
# B13: chrX:71240429:71240530:-|3pUTR|ENSG00000147130|msi1|FALSE|unique (ssRNA)
# RNA: GGGAGUUCUACAGUCCGACGAUCGGCUUUGGGUUUCCUGACCCAUCCCGCAUAGGUAGAGCCUCUUGUUCCUAGGCAUGACCUAGGGAAAAACCCAGCUGCCUUCUCUGCCCUGUGCCCACUCCCUUCUCUACUCUUCCCCAGCAACAGAGGAUUGAGCAUCA
# B14: chr10:78022286:78022401:-|CDS|ENSG00000148606|unk|total|mutant (ssRNA)
# RNA: GGGAGUUCUACAGUCCGACGAUCAACACCGUAUCUCCAUUUCUGCCUUUCUUCGUUUCCACCGGAAAACUUGAAUCCCUCCGCCGUUCUGAAUUUAUUUAAACGAAUCCCAGCUGAAGAUGUUCCUCUACUUCUGAUGAACCCCAACAGAGGAUUGAGCAUCA
# B15: chr12:20680103:20680206:+|CDS|ENSG00000172572|unk|FALSE|unique (ssRNA)
# RNA: GGGAGUUCUACAGUCCGACGAUCCUUACAGAACCACAAGAUGUGGAAGAAAGUCAUUGAAGAGGAGCAACGGUUGGCAGGCAUAGAAAAUCAAUCCCUGGACCAGACCCCUCAGUCGCACUCUUCAGAACAGAUCCAGGCUAUCAACAGAGGAUUGAGCAUCA
# B16: chr19:17405403:17405546:-|CDS|ENSG00000130303|unk|total|mutant (ssRNA)
# RNA: GGGAGUUCUACAGUCCGACGAUCUGACUAUUGCAGAGUGCCCAUGGAAGACGGGGAUAAGCGCUGUAAGCUUCUGCUGGGGACCGGAAUUCUGGUGCUCCUGAUCAUCGUGAUUCUGGGGGUGCCCUUGAUUAUCUUCACCAUCAACAGAGGAUUGAGCAUCA
# B17: chr7:41967724:41967825:-|CDS|ENSG00000106571|msi1|total|mutant (ssRNA)
# RNA: GGGAGUUCUACAGUCCGACGAUCCCCCAUCAGCAACUAUUCCAACAGUGGGCUCGAGCUUCCUCUGACCGAUGGAGGCCGUACCGGAGACCUCAGUGCCAUCGAUGAAACCCCAAUCAUGGACUCAACCAUUUCCACUGCAACCAACAGAGGAUUGAGCAUCA
# B18: chr4:127885990:127886091:+|CDS|ENSG00000142731|msi1|FALSE|unique (ssRNA)
# RNA: GGGAGUUCUACAGUCCGACGAUCAUUACUUAUCGGGAGACCACCCUUCGACACUGACACAGUCAAGAACACAUUAAAUAAAGUAGUAUUGGCAGAUUAUGAAAUGCCAUCUUUUUUGUCAAUAGAGGCCAAGGACCUUAUUCACAACAGAGGAUUGAGCAUCA
# B19: chr8:97276997:97277102:-|CDS|ENSG00000180543|unk|total|mutant (ssRNA)
# RNA: GGGAGUUCUACAGUCCGACGAUCAUCCCGGGCUUCUGGGGGCAAGCAUUUCAGAACCAUCCCCAGCCCGCAUCCUUUCUGAACCGCCAAGAGAAAGAGGUACUGAGCUACUUAAACAGCUUGGAAGUGGAAGAGCUCGGCCUUCAACAGAGGAUUGAGCAUCA
# B20: chr10:123166816:123166917:+|3pUTR|ENSG00000154473|unk|FALSE|unique (ssRNA)
# RNA: GGGAGUUCUACAGUCCGACGAUCAAAAACUUAAAGGUAUAUUAGCAGGUUAGCCUUUGUUCUGUGGGAGAUCCAGGCCUUGUUAGAAGGACCAAGGCCAGAAUGCCCAGUUUAGCCUUAGCAUUCAAACCCUUCAUUGUUUUUCAACAGAGGAUUGAGCAUCA
# B21: chr5:147393764:147393895:-|3pUTR|ENSG00000113657|msi1_unk|FALSE|overlapping (ssRNA)
# RNA: GGGAGUUCUACAGUCCGACGAUCUCCAAUGUUACGCUCGCUUGCCUAGCUUUACGAAUAUUGCUUUGUUUUCUGUUUAUGCAUAGCCUUGAUUUGUUUGACUCCCCUCCCCCCAUUUACAUGCAUGCAAUCAGACAGGCCACUCAACAGAGGAUUGAGCAUCA
# B22: chr7:36452941:36453042:+|3pUTR|ENSG00000011426|msi1|FALSE|unique (ssRNA)
# RNA: GGGAGUUCUACAGUCCGACGAUCGUCUUGAAGCAGCAACGUCUUUCAGGGGUUGGAGACAGAAACCCAUUCUCCAAUCUCAGUAGUUUUUUCGAAAGGCUGUGAUCAUUUAUUGAUCGUGAUAUGACUUGUUACUAGGGUACUCAACAGAGGAUUGAGCAUCA
# Biological target: T1, UNK ZnF1-6 (called full-length)
# Test: nsRBNS (natural sequence RNA bind-n-seq); RBNS binding buffer (assumed for nsRBNS): 25 mM Tris pH 7.5, 150 mM KCl, 3 mM MgCl2, 0.01% Triton X-100, 500 ug/ml BSA, 20 U/ml SUPERase-In, 4 C; UNK is unkempt and MSI1 is Musashi-1; names of the RNAs are library labels; protein concentration not given here; high values mean tight binding
row,Binder,binding signal [enrichment R]
1,B1,0.604
2,B2,0.373
3,B3,0.479
4,B4,0.605
5,B5,1.19
6,B6,0.441
7,B7,0.574
8,B8,0.325
9,B9,0.743
10,B10,0.556
11,B11,0.551
12,B12,1.21
13,B13,0.88
14,B14,0.399
15,B15,0.691
16,B16,0.908
17,B17,0.64
18,B18,1.26
19,B19,0.553
20,B20,0.847
21,B21,0.696
22,B22,0.713

# — article PMC12136788
